Data on 90 compounds can be found in PubChem BioAssay AID463173 (ICCB-Longwood Screening Facility, Harvard Medical School, 2010).

Hit rate of the full screen: of about 52,000 compounds, about 4,300 (8.3%) were called active. Rule as the data show it: active = survival mostly below about 52% (no sharp cut-off); inactive = mostly above about 56%. Some of the results follow.

This test deals with DeltatarO mutant. Nature of the test: S. aureus survival, RN4220 and DeltatarO strains – OD600, teichoic acid synthesis inhibitors, primary screen (AID 463173). Conditions: S. aureus RN4220 wild type/DeltatarO growth, OD600, 18 h, stronger effect = lower value, screened at 18.75 µg/mL (by protocol).
Consider `COc1ccc(C)cc1NC(=O)Cn1cc(S(=O)(=O)Cc2ccccc2Cl)c2ccccc21`, for which the survival was inactive: 93%. In the case of `CCOc1cc2c(cc1OCC)C(c1c(F)cccc1Cl)CC(=O)N2` (stereo not given), the survival was inactive: 74%. Under `Cc1cccc(NC(=O)Cn2c(C(F)(F)F)nc3ccccc32)c1C` stands active: 31%; under `CCc1ccccc1NC(=O)c1nc(-c2ccncc2)no1`, inactive: 46%. Next, `O=C(NCCc1csc2nc(-c3ccc(F)cc3)nn12)c1ccco1`: inactive: 104%; `COc1cc(C2C(C(=O)Nc3ccccc3)=C(C)Nc3nc(SCc4ccccc4F)nn32)cc(OC)c1OC` (stereo not given): inactive: 128%; `Cc1sc2c(c1C)c(=O)n(-c1ccc(Cl)cc1)c(=O)n2Cc1c(F)cccc1Cl`: inactive: 83%. With `CCOC(=O)c1c(S(=O)(=O)N2CCC(C(=O)N3CCN(c4cc(C)ccc4C)CC3)CC2)c(C)n(C)c1C`, the survival is inactive: 75%. Under `CCOc1ccccc1CNS(=O)(=O)c1csc(C(N)=O)c1` stands inactive: 68%; under `CC1CCN(S(=O)(=O)c2cc(C(=O)Nc3ccc(Br)cc3F)n(C)c2)CC1`, inactive: 83%. `COC(=O)c1cc(NC(=O)CCc2c(C)nc3cc(-c4ccccc4)nn3c2C)cc(C(=O)OC)c1`: the survival was inactive: 118%. In the case of `Cc1ccc(-c2cc(C(=O)N3CCN(c4ccccc4)CC3)c3ccccc3n2)cc1C`, the survival was inactive: 113%. As to `COc1ccc(N2CCN(C(=O)CS(=O)(=O)c3cccc4nsnc34)CC2)cc1`, the survival was inactive: 107%.

For `CC(=O)N1CCc2cc(Br)cc(S(=O)(=O)N3CCN(c4cccc(C)c4)C(C)C3)c21` (stereo not given), the survival was inactive: 74%.

Take `O=C(NCCc1csc(-c2cccnc2)n1)c1ccc(F)c(F)c1`: the survival was inactive: 118%.

`CCCCN1CCc2nc(N3CCN(C)CC3)ncc2C1`: the survival was inactive: 72%.

Consider `CN(C)c1ccc(CNC(=O)CCCn2ccc3cc(S(=O)(=O)N4CCCC4)ccc32)cc1`, for which the survival was active: 8%. Under `COc1ccc(CCN2CCC(CNC(=O)c3cnn(-c4ccccc4)c3C3CCN(C(=O)OC(C)(C)C)CC3)CC2)cc1` stands inactive: 69%.

As to `Cc1nn(C(C)C(=O)NC2CCC(C)CC2)c(=O)c2cc3sccc3n12` (stereo not given), the survival was inactive: 88%.

In the case of `COc1cccc(N2CCN(S(=O)(=O)c3ccc4c(c3)CCCN4C(C)=O)CC2)c1`, the survival is inactive: 81%. Regarding `CCOC(=O)c1c(NC(=O)c2cc(=O)c3ccc(C)cc3o2)sc(C)c1C`, the survival is inactive: 100%. On to `COc1ccc(Cl)cc1NC(=O)c1cc(C)nn1-c1ccccc1`, for which the survival was inactive: 67%. With `Oc1ccc(NCc2ccc(OCc3ccccc3Cl)cc2)cc1`, the survival is active: 35%. For the compound `O=C(CSc1nc(=O)n(Cc2cccnc2)c2c1CCC2)Nc1ccc(F)cc1F`, the survival was inactive: 78%. As for `Cc1ccc(Cc2nc3ccccc3nc2SCC(=O)N2CCCCC2C)cc1` (stereo not given), the survival is inactive: 94%. Next, `CCN(CC)c1ncnc(Cl)c1Cc1ccc(OC)cc1`: inactive: 105%. With `COC(=O)c1cccc(NC(=O)Nc2cc(C(=O)NCc3cccc(F)c3)ccc2N2CCCC2)c1`, the survival is inactive: 91%. Under `N#C/C(=C\c1c(Oc2ccc(Br)cc2)nc2ccccn2c1=O)c1nc2ccccc2s1` stands inactive: 103%.

Take `Fc1ccccc1-n1ncc2c1ncn1nc(Cc3ccccc3)nc21`: the survival is inactive: 74%. Next, `Cc1ccc(C)c(N/C=C(\C#N)c2nc3ccccc3o2)c1`: inactive: 95%; `Cc1ccccc1NC(=O)CN(c1ccc(Cl)cc1Cl)S(=O)(=O)c1ccccc1`: inactive: 44%; `COc1ccc(-c2nc3sc(CCNC(=O)c4ccccc4C)c(C)n3n2)cc1`: inactive: 77%. As for `Cc1cn(C)c(CC(=O)N2CCN(c3ccccc3F)CC2)c1C(=O)O`, the survival is inactive: 89%. On to `Cc1ccc2c(c1)-c1c(c(C(=O)N3CCN(c4cc(Cl)ccc4C)CC3)nn1C)CS2`, for which the survival was inactive: 69%. Under `CC(CNC(=O)CCS(=O)(=O)c1ccc2c(c1)oc(=O)n2C)c1ccccc1` (stereo not given) stands inactive: 87%; under `Cc1cccc(NC(=O)N2CCC(CN3CCOCC3)CC2)c1C`, inactive: 86%; under `CCOc1ccc(C2C(C(=O)Nc3ccc(Cl)cc3)=C(C)Nc3nc(C(F)(F)F)nn32)cc1` (stereo not given), inactive: 51%. As to `COc1ccc(OC)c(S(=O)(=O)N2CC=C(c3c(C)n(CC(=O)N4CCCC4)c4ccccc34)CC2)c1`, the survival was inactive: 72%. In the case of `O=S(=O)(c1ccc(Cl)cc1)c1nnn2c1nc(N1CCCCC1)c1sccc12`, the survival is inactive: 52%. Take `COc1ccc(-c2cc(C(F)(F)F)n3nc(C(=O)NCC45CC6CC(CC(C6)C4)C5)cc3n2)cc1OC`: the survival is inactive: 137%. Regarding `Cc1cccc(Cn2c(C)c(CNC3CCCCC3)c(C(=O)O)c2C)c1`, the survival was inactive: 90%. In the case of `CCOC(=O)c1ccccc1NC(=O)N1CCOc2ccc(Cl)cc21`, the survival was inactive: 99%. Regarding `CC1CCN(S(=O)(=O)c2ccc3c(c2)N(CC(=O)O)C(=O)CO3)CC1`, the survival is inactive: 94%.

Regarding `CCc1ccccc1NC(=O)CSc1nc2c(oc3ccccc32)c(=O)n1-c1ccccc1F`, the survival is inactive: 76%. As to `Cc1ccc(NC(=O)C(=O)NCC(c2cccnc2)N2CCN(Cc3ccccc3)CC2)cc1` (stereo not given), the survival was inactive: 88%.

With `Cc1ccc2ccc3cc(C(=O)N4CCN(c5ccccc5)CC4)nc3c2[nH]1`, the survival was inactive: 120%. Under `CC(=O)Nc1ccc(-c2nnc(SCC(=O)c3ccc([N+](=O)[O-])cc3)o2)cc1` stands inactive: 66%; under `O=C(Cn1nnc(-c2ccncc2)n1)NCCc1ccccc1`, inactive: 84%.

`O=S(=O)(NCc1ccccc1Cl)c1ccc(N2CCCCS2(=O)=O)cc1`: the survival is inactive: 129%. On to `Cc1cccn2c(=O)c3cc(C(=O)N(Cc4ccccc4)C(C)C)sc3nc12`, for which the survival was inactive: 63%. As for `Cc1cccc(C(=O)Nc2nc(-c3nnn(-c4cc(F)ccc4F)c3C)ns2)c1`, the survival was inactive: 128%. On to `CCCCN(C)CCNC(=O)c1ccc2c(c1)NC(=O)CN2`, for which the survival is inactive: 71%.

As for `Cc1c(C(=O)NCCc2ccc(S(N)(=O)=O)cc2)sc2nc3n(c(=O)c12)CCCC3`, the survival was inactive: 83%. Regarding `CC(C)N1CCc2c(sc(NC(=O)c3ccc(S(=O)(=O)N(C)C4CCCCC4)cc3)c2C(N)=O)C1`, the survival was inactive: 86%. Under `O=C(NCc1ccc(Cl)cc1)c1ccc(CNS(=O)(=O)c2ccc(F)cc2)cc1` stands inactive: 83%. Regarding `COCCc1nn2c(=O)cc(COC(=O)c3ccco3)nc2s1`, the survival was inactive: 92%. As for `CCC1CCCCN1C1CC(=O)N(c2ccc(NC(C)=O)cc2)C1=O` (stereo not given), the survival is inactive: 96%.

For the compound `Cc1ccccc1CNC(=O)C(=O)NCC(c1ccc2c(c1)OCO2)N1CCOCC1` (stereo not given), the survival was inactive: 87%.

For `CCOc1ccc(-c2nnc(N(C(=O)C3CCC3)C(C)C)s2)cc1`, the survival is inactive: 101%. With `Cc1ccc2c(c1)-c1c(cnn1CC(=O)N1CCN(c3cc(C)ccc3C)CC1)CO2`, the survival is inactive: 50%. In the case of `Cc1ccccc1S(=O)(=O)Cc1ccc(C(=O)NCCc2ccccc2)o1`, the survival was inactive: 76%. With `Cc1n[nH]c(C)c1Cc1ccc(N)cc1`, the survival is inactive: 93%. Next, `CC1CCN(c2csc3ccc(F)cc3c2=O)CC1`: inactive: 113%; `CCCN1CCN(CCCNC(=O)c2ccc3c(c2)sc2nc(-c4ccc(OCC)cc4)cn23)CC1`: active: 28%; `Cc1ccc(CN(CC(=O)NC2CCCC2)C(=O)CSc2nnc(COc3ccccc3)o2)cc1`: inactive: 80%.

Consider `CCOc1ccc(-c2cn3c(n2)sc2cc(C(=O)N4CCCC(C)C4)ccc23)cc1` (stereo not given), for which the survival was inactive: 58%. With `Cc1nc(N2CCOCC2)c2c(C(=O)N(C)c3ccccc3)c(C)oc2n1`, the survival was inactive: 64%. In the case of `CCC(Sc1nc2cc(OC)c(OC)cc2c(=O)n1Cc1ccc(OC)cc1)C(=O)NCCOC` (stereo not given), the survival is inactive: 92%.

As to `O=C(CCN1CCCCC1)Nc1ccccc1`, the survival is inactive: 97%. For the compound `O=C(Nc1ccccc1)C1CC(=O)N(c2ccccc2)C1` (stereo not given), the survival is inactive: 89%. Next, `CC(=O)c1ccc(NC(=O)c2cc(S(=O)(=O)N3CCOCC3)ccc2C)cc1`: active: 49%; `c1ccc2c(NCC3CCCO3)nc(N3CCCCC3)nc2c1` (stereo not given): inactive: 111%. As for `CC(C)(C)c1ccc(C(=O)Nc2ccc(OCc3cc(=O)n4ccsc4n3)cc2)cc1`, the survival is inactive: 101%. With `COc1ccc(CCNC(=O)c2ccc(Cn3c(=O)c4ccccc4n(Cc4ccc(F)cc4Cl)c3=O)cc2)cc1OC`, the survival was inactive: 90%. Turning to `Cc1cc(N2CCN(c3ccccc3)CC2)n2cnnc2n1`, the survival is inactive: 93%.

Turning to `Cc1c(Cl)cccc1NC(=O)CSc1nc(=O)[nH]c2c1CCCC2`, the survival is inactive: 68%. Next, `COc1ccc(OC)c(NC(=O)Cn2ncc3c2-c2ccccc2OC3)c1`: inactive: 50%. Under `O=C(NCCc1ccc(Cl)cc1)C1(c2cccs2)CCOCC1` stands inactive: 84%; under `Cc1ccc(-n2c(=O)c3cccnc3n2CC(=O)Nc2ccc(C)cc2Cl)cc1`, inactive: 97%; under `COc1ccc(NC(=O)c2ccccc2C(=O)N2CCCCC2)cc1`, inactive: 68%.

For `Cc1ccc(CNC(=O)CN2CCC(n3nnc4cc(C)ccc43)CC2)cc1`, the survival is inactive: 94%. As for `CC(C)c1ccc2nc(SCC(=O)NC(C)(C)C)c(C#N)cc2c1`, the survival is inactive: 90%. Under `c1ccc(CN(Cc2cccs2)C(c2cccs2)c2nnnn2C2CCCC2)cc1` (stereo not given) stands inactive: 60%. Under `CCOC(=O)c1cc(-c2ccccc2)n(CC(=O)NCc2ccc(C)cc2)c1C` stands active: 37%; under `CCOC(=O)c1c(C)oc2nc(C)nc(NCC3CCN(Cc4ccccc4C)CC3)c12`, inactive: 86%. Take `O=C(NCC(c1cccnc1)N1CCOCC1)C(=O)Nc1ccc(Cl)cc1` (stereo not given): the survival was inactive: 87%. For `O=C1CN(C(=O)c2ccc(S(=O)(=O)N3CCCCC3)cc2)C(c2ccc(F)cc2)c2cc(Cl)ccc2N1` (stereo not given), the survival was inactive: 62%. With `Cc1cccc(-c2nc(CS(=O)CC(=O)NCc3ccc(Cl)cc3)c(C)o2)c1` (stereo not given), the survival was inactive: 61%.

For `O=C(NCCc1ccccc1)c1ccc(CSc2nc3cccnc3n2Cc2ccccc2F)cc1`, the survival is inactive: 91%. Under `COc1ccc(C2=C(C)C(=O)N(Cc3ccc(C(=O)Nc4ccc(F)cc4C)cc3)S2(=O)=O)cc1` stands inactive: 61%.
